Measured values from the supplement of paper PMC4604168 (melanoma cell lines).
The other results are listed elsewhere or left out. Many values rest on one well or one pass, so single values are uncertain.

Columns and labels:
Test in all cases: cell count relative to DMSO control; melanoma cells; higher = more viable cells
Settings in all cases: library dose: standard library concentration; 72 h
[1] = test system: G361
[2] = test system: IPC-298
[3] = test system: IST-MEL1
[4] = test system: LB2518-MEL
[5] = test system: LOXIMVI
[6] = test system: MEL-HO
[7] = test system: MZ2-MEL
[8] = test system: MeWo
[9] = test system: RPMI7951
[10] = test system: RVH-421
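Note: cells treated in 1,536-well plates, then fixed and DAPI-stained, with nuclei counted from automated high-throughput microscope images.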

Cn1c(=O)n(-c2ccc(C(C)(C)C#N)cc2)c2c3cc(-c4cnc5ccccc5c4)ccc3ncc21 + O=S(=O)(c1ccccc1)N(CC(F)(F)F)c1ccc(C(O)(C(F)(F)F)C(F)(F)F)cc1 [T0901317] (first compound 0.02 µM, partner dose 7 µM)
cell count [1]: 40.7%
cell count [2]: 70.1%
cell count [3]: 80.6%
cell count [4]: 68%
cell count [5]: 66.2%
cell count [6]: 67.2%
cell count [7]: 59.7%
cell count [8]: 63%
cell count [9]: 62.1%
cell count [10]: 96.3%

Cn1c(=O)n(-c2ccc(C(C)(C)C#N)cc2)c2c3cc(-c4cnc5ccccc5c4)ccc3ncc21 + COc1cc(Nc2ncc(F)c(Nc3ccc4c(n3)NC(=O)C(C)(C)O4)n2)cc(OC)c1OC [Tamatinib] (first compound 0.02 µM, partner dose 2 µM)
cell count [1]: 46.4%
cell count [2]: 74%
cell count [3]: 23.3%
cell count [4]: 75.8%
cell count [5]: 30.2%
cell count [6]: 58.8%
cell count [7]: 61.8%
cell count [8]: 51.6%
cell count [9]: 19.7%
cell count [10]: 63.9%

COc1ccc(C2=N[C@@H](c3ccc(Cl)cc3)[C@@H](c3ccc(Cl)cc3)N2C(=O)N2CCNC(=O)C2)c(OC(C)C)c1 [Nutlin-3] + COc1cc(N2CCC(N3CCN(C)CC3)CC2)ccc1Nc1ncc(Cl)c(Nc2ccccc2S(=O)(=O)C(C)C)n1 [NVP-TAE684] (first compound 0.5 µM, partner dose 0.4 µM)
cell count [1]: 73.4%
cell count [2]: 95.8%
cell count [3]: 84%
cell count [4]: 87.4%
cell count [5]: 79.6%
cell count [6]: 85.2%
cell count [7]: 85.7%
cell count [8]: 67.6%
cell count [9]: 86.7%
cell count [10]: 63%

CC(C)C[C@H](NC(=O)[C@H](Cc1ccccc1)NC(=O)c1cnccn1)B(O)O [Bortezomib] + O=C(Nc1ccccc1)c1cc([N+](=O)[O-])ccc1Cl [GW9662] (first compound 0.005 µM, partner dose 10 µM)
cell count [1]: 0.653%
cell count [2]: 6.99%
cell count [3]: 7.16%
cell count [4]: 2.03%
cell count [5]: 14.9%
cell count [6]: 25.7%
cell count [7]: 7.37%
cell count [8]: 7.43%
cell count [9]: 7.71%
cell count [10]: 63.9%

Cc1cc(Nc2cc(N3CCN(C)CC3)nc(/C=C/c3ccccc3)n2)n[nH]1 + C[C@@H](Oc1cc(-c2cnn(C3CCNCC3)c2)cnc1N)c1c(Cl)ccc(F)c1Cl [Crizotinib] (first compound 0.2 µM, partner dose 1 µM)
cell count [1]: 88.6%
cell count [2]: 85.3%
cell count [3]: 88.9%
cell count [4]: 69.5%
cell count [5]: 86.3%
cell count [6]: 68.7%
cell count [7]: 70.5%
cell count [8]: 58.9%
cell count [9]: 54.9%
cell count [10]: 107%

Cn1c(=O)n(-c2ccc(C(C)(C)C#N)cc2)c2c3cc(-c4cnc5ccccc5c4)ccc3ncc21 + O=C(O)c1ccc2c(c1)nc(Nc1cccc(Cl)c1)c1ccncc12 [CX4945] (first compound 0.02 µM, partner dose 2 µM)
cell count [1]: 42.9%
cell count [2]: 61.3%
cell count [3]: 66.6%
cell count [4]: 108%
cell count [5]: 66.2%
cell count [6]: 42.3%
cell count [7]: 65.8%
cell count [8]: 70.3%
cell count [9]: 38.4%
cell count [10]: 86.7%

CC(C)C[C@H](NC(=O)[C@H](Cc1ccccc1)NC(=O)c1cnccn1)B(O)O [Bortezomib] + COc1cc(N2CCC(N3CCN(C)CC3)CC2)ccc1Nc1ncc(Cl)c(Nc2ccccc2S(=O)(=O)C(C)C)n1 [NVP-TAE684] (first compound 0.005 µM, partner dose 0.4 µM)
cell count [1]: 2.75%
cell count [2]: 20.6%
cell count [3]: 10.8%
cell count [4]: 2.15%
cell count [5]: 22.7%
cell count [6]: 29.6%
cell count [7]: 4.29%
cell count [8]: 11.5%
cell count [9]: 10.9%
cell count [10]: 18.4%

COc1ccc(C2=N[C@@H](c3ccc(Cl)cc3)[C@@H](c3ccc(Cl)cc3)N2C(=O)N2CCNC(=O)C2)c(OC(C)C)c1 [Nutlin-3] + CN(c1ncccc1CNc1nc(Nc2ccc3c(c2)CC(=O)N3)ncc1C(F)(F)F)S(C)(=O)=O [PF562271] (first compound 0.5 µM, partner dose 0.4 µM)
cell count [1]: 72.5%
cell count [2]: 88.4%
cell count [3]: 92.2%
cell count [4]: 72.5%
cell count [5]: 79.5%
cell count [6]: 97.9%
cell count [7]: 91.4%
cell count [8]: 107%
cell count [9]: 62.3%
cell count [10]: 60.3%

Cn1c(=O)n(-c2ccc(C(C)(C)C#N)cc2)c2c3cc(-c4cnc5ccccc5c4)ccc3ncc21 + COc1ccc2c(c1)CCC1C2CCC2(C)C(NCCCCCCN3C(=O)C=CC3=O)CCC12 [U73122] (first compound 0.02 µM, partner dose 2 µM)
cell count [1]: 72.5%
cell count [2]: 98.1%
cell count [3]: 85.9%
cell count [4]: 107%
cell count [5]: 88.5%
cell count [6]: 78.8%
cell count [7]: 100%
cell count [8]: 53.6%
cell count [9]: 21.3%
cell count [10]: 95%

Cc1cn(-c2cc(NC(=O)c3ccc(C)c(Nc4nccc(-c5cccnc5)n4)c3)cc(C(F)(F)F)c2)cn1 [nilotinib] + COc1ccc(COc2ccc(Cc3cnc(N)nc3N)cc2OC)cc1 [GW2580] (first compound 1 µM, partner dose 5 µM)
cell count [1]: 78.1%
cell count [2]: 94.8%
cell count [3]: 126%
cell count [4]: 87.8%
cell count [5]: 97.3%
cell count [6]: 90.1%
cell count [7]: 78.4%
cell count [8]: 81.3%
cell count [9]: 80.4%
cell count [10]: 86%

Cc1cc(Nc2cc(N3CCN(C)CC3)nc(/C=C/c3ccccc3)n2)n[nH]1 + COc1ccc(COc2ccc(Cc3cnc(N)nc3N)cc2OC)cc1 [GW2580] (first compound 0.2 µM, partner dose 5 µM)
cell count [1]: 76.1%
cell count [2]: 88.2%
cell count [3]: 90.4%
cell count [4]: 82.2%
cell count [5]: 86.9%
cell count [6]: 75.9%
cell count [7]: 97.4%
cell count [8]: 69.9%
cell count [9]: 84.2%
cell count [10]: 74.3%

Cc1cn(-c2cc(NC(=O)c3ccc(C)c(Nc4nccc(-c5cccnc5)n4)c3)cc(C(F)(F)F)c2)cn1 [nilotinib] + O=c1cc(-c2cccc3c2Sc2ccccc2S3)oc(N2CCOCC2)c1 [KU55933] (first compound 1 µM, partner dose 5 µM)
cell count [1]: 67.9%
cell count [2]: 83.4%
cell count [3]: 82.1%
cell count [4]: 99.7%
cell count [5]: 89.3%
cell count [6]: 83.7%
cell count [7]: 84.9%
cell count [8]: 77.8%
cell count [9]: 68.4%
cell count [10]: 111%

CC(C)C[C@H](NC(=O)[C@H](Cc1ccccc1)NC(=O)c1cnccn1)B(O)O [Bortezomib] + Cn1cc(/C=C2\C(=O)Nc3cccnc32)c2ccccc21 [GW441756] (first compound 0.005 µM, partner dose 2 µM)
cell count [1]: 0.657%
cell count [2]: 3.38%
cell count [3]: 8.81%
cell count [4]: 1.77%
cell count [5]: 18.2%
cell count [6]: 25.8%
cell count [7]: 4.25%
cell count [8]: 8.03%
cell count [9]: 5.35%
cell count [10]: 16.3%

COc1ccc(C2=N[C@@H](c3ccc(Cl)cc3)[C@@H](c3ccc(Cl)cc3)N2C(=O)N2CCNC(=O)C2)c(OC(C)C)c1 [Nutlin-3] + Cc1ccc(NC(=O)c2cccc(N(C)C)c2)cc1NC(=O)c1ccc(O)cc1 [ZM336372] (first compound 0.5 µM, partner dose 10 µM)
cell count [1]: 90.2%
cell count [2]: 116%
cell count [3]: 81.2%
cell count [4]: 105%
cell count [5]: 95.3%
cell count [6]: 95.3%
cell count [7]: 119%
cell count [8]: 96.9%
cell count [9]: 89.5%
cell count [10]: 75.5%

Cc1cn(-c2cc(NC(=O)c3ccc(C)c(Nc4nccc(-c5cccnc5)n4)c3)cc(C(F)(F)F)c2)cn1 [nilotinib] + COc1ccc(Cl)c(Nc2nc3ccccc3nc2NS(=O)(=O)c2cccc(NC(=O)C(C)(C)N)c2)c1 [XL147] (first compound 1 µM, partner dose 4 µM)
cell count [1]: 79.4%
cell count [2]: 92.9%
cell count [3]: 74.6%
cell count [4]: 84.3%
cell count [5]: 132%
cell count [6]: 79.7%
cell count [7]: 82.1%
cell count [8]: 90.8%
cell count [9]: 119%
cell count [10]: 129%

Cc1cn(-c2cc(NC(=O)c3ccc(C)c(Nc4nccc(-c5cccnc5)n4)c3)cc(C(F)(F)F)c2)cn1 [nilotinib] + O=C(Nc1cccc(Cl)c1)Nc1ncc(CCNc2ncnc3ccsc23)s1 [SNS314] (first compound 1 µM, partner dose 0.004 µM)
cell count [1]: 59.6%
cell count [2]: 58.3%
cell count [3]: 59.3%
cell count [4]: 68.8%
cell count [5]: 199%
cell count [6]: 75.4%
cell count [7]: 91.2%
cell count [8]: 61.2%
cell count [9]: 107%
cell count [10]: 87.8%

Cc1cc(Nc2cc(N3CCN(C)CC3)nc(/C=C/c3ccccc3)n2)n[nH]1 + Cc1cc([N+](=O)[O-])ccc1NS(=O)(=O)c1cc(Cl)ccc1Cl [FH535] (first compound 0.2 µM, partner dose 5 µM)
cell count [1]: 43.9%
cell count [2]: 53.8%
cell count [3]: 51.9%
cell count [4]: 71.4%
cell count [5]: 56.1%
cell count [6]: 43.2%
cell count [7]: 59.6%
cell count [8]: 55.3%
cell count [9]: 66.1%
cell count [10]: 51.8%

CC(C)C[C@H](NC(=O)[C@H](Cc1ccccc1)NC(=O)c1cnccn1)B(O)O [Bortezomib] + CO[C@@H]1[C@H](N(C)C(=O)c2ccccc2)C[C@H]2O[C@]1(C)n1c3ccccc3c3c4c(c5c6ccccc6n2c5c31)C(=O)NC4 [Midostaurin] (first compound 0.005 µM, partner dose 0.4 µM)
cell count [1]: 0.439%
cell count [2]: 3.81%
cell count [3]: 11%
cell count [4]: 1.37%
cell count [5]: 11.5%
cell count [6]: 18%
cell count [7]: 6.39%
cell count [8]: 15%
cell count [9]: 2.07%
cell count [10]: 2.2%

CC(C)C[C@H](NC(=O)[C@H](Cc1ccccc1)NC(=O)c1cnccn1)B(O)O [Bortezomib] + COCC[n+]1c2c(n(Cc3cnccn3)c1C)C(=O)c1ccccc1C2=O [YM155] (first compound 0.005 µM, partner dose 0.002 µM)
cell count [1]: 1.79%
cell count [2]: 13.6%
cell count [3]: 9.54%
cell count [4]: 5.35%
cell count [5]: 26.2%
cell count [6]: 29.6%
cell count [7]: 4.9%
cell count [8]: 10.2%
cell count [9]: 6.13%
cell count [10]: 19.5%

COc1ccc(C2=N[C@@H](c3ccc(Cl)cc3)[C@@H](c3ccc(Cl)cc3)N2C(=O)N2CCNC(=O)C2)c(OC(C)C)c1 [Nutlin-3] + c1cc(-c2cnn3cc(-c4ccc(OCCN5CCCCC5)cc4)cnc23)ccn1 [Dorsomorphin] (first compound 0.5 µM, partner dose 2 µM)
cell count [1]: 40.8%
cell count [2]: 79.6%
cell count [3]: 71.7%
cell count [4]: 67.7%
cell count [5]: 73.8%
cell count [6]: 85.3%
cell count [7]: 71.6%
cell count [8]: 72%
cell count [9]: 86.6%
cell count [10]: 81.7%
